# From PMC12820563
# This is one part of the list. The list includes weakly bound sequences.
# Target: T1, MBP-FoxP3dN (UniProt Q99JB6)
# T1 sequence: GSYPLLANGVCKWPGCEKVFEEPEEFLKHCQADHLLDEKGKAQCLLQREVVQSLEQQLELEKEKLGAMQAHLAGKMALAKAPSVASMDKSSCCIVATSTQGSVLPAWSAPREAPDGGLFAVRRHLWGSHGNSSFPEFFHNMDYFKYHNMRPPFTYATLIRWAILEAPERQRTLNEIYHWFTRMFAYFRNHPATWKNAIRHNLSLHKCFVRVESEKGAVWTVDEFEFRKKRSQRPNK
# Assay: PD-seq (MBP pull-down with sequencing)
# Conditions: 20 mM Tris-HCl pH 7.5, 100 mM NaCl, 1.5 mM MgCl2, 0.4 uM protein, 0.1 uM dsDNA library, 30 min, room temperature, amylose pull-down; high values mean tight binding; double strand, one strand shown
row,Sequence,binding signal (RPM ratio (pull-down/input))
1,GATGATTGTTCTCCCAGCTGATGAATTAGCACTCTCGAGTAAACAAATTTTCCTAATCTTTCTGTTCAAGCGCCATCTAC,0.493
2,GATGATTGTTCTCCCAGCTGATGAATTACCGGAATCGAGTAAACAAATTTTCCTAATCTTTCTGTTCAAGCGCCATCTAC,0.214
3,GATGATTGTTCTCCCAGCTGATGAATTGTATCAGTCGAGTAAACAAATTTTCCTAATCTTTCTGTTCAAGCGCCATCTAC,1.09
4,GATGATTGTTCTCCCAGCTGATGAATTGATGCTGTCGAGTAAACAAATTTTCCTAATCTTTCTGTTCAAGCGCCATCTAC,2.03
5,GATGATTGTTCTCCCAGCTGATGAATTAATGACCTCGAGTAAACAAATTTTCCTAATCTTTCTGTTCAAGCGCCATCTAC,0.385
6,GATGATTGTTCTCCCAGCTGATGAATTTGTTACATCGAGTAAACAAATTTTCCTAATCTTTCTGTTCAAGCGCCATCTAC,2.88
7,GATGATTGTTCTCCCAGCTGATGAATTCGGTGATTCGAGTAAACAAATTTTCCTAATCTTTCTGTTCAAGCGCCATCTAC,1.06
8,GATGATTGTTCTCCCAGCTGATGAATTCAGATCTTCGAGTAAACAAATTTTCCTAATCTTTCTGTTCAAGCGCCATCTAC,0.25
9,GATGATTGTTCTCCCAGCTGATGAATTGATGTAATCGAGTAAACAAATTTTCCTAATCTTTCTGTTCAAGCGCCATCTAC,1.25
10,GATGATTGTTCTCCCAGCTGATGAATTCCCCTTATCGAGTAAACAAATTTTCCTAATCTTTCTGTTCAAGCGCCATCTAC,0.349
11,GATGATTGTTCTCCCAGCTGATGAATTCTAAGTCTCGAGTAAACAAATTTTCCTAATCTTTCTGTTCAAGCGCCATCTAC,0.36
12,GATGATTGTTCTCCCAGCTGATGAATTAAGCGTCTCGAGTAAACAAATTTTCCTAATCTTTCTGTTCAAGCGCCATCTAC,3.79
13,GATGATTGTTCTCCCAGCTGATGAATTGAAGAGCTCGAGTAAACAAATTTTCCTAATCTTTCTGTTCAAGCGCCATCTAC,0.196
14,GATGATTGTTCTCCCAGCTGATGAATTAAACTCCTCGAGTAAACAAATTTTCCTAATCTTTCTGTTCAAGCGCCATCTAC,0.338
15,GATGATTGTTCTCCCAGCTGATGAATTTTCTATCTCGAGTAAACAAATTTTCCTAATCTTTCTGTTCAAGCGCCATCTAC,0.305
16,GATGATTGTTCTCCCAGCTGATGAATTTAAGATTTCGAGTAAACAAATTTTCCTAATCTTTCTGTTCAAGCGCCATCTAC,0.304

row,Sequence,binding signal (RPM ratio (pull-down/input))
1,GATGATTGTTCTCCCAGCTGATGAATTTTCAGCATCGAGTAAACAAATTTTCCTAATCTTTCTGTTCAAGCGCCATCTAC,0.775
2,GATGATTGTTCTCCCAGCTGATGAATTCTTATTCTCGAGTAAACAAATTTTCCTAATCTTTCTGTTCAAGCGCCATCTAC,0.431
3,GATGATTGTTCTCCCAGCTGATGAATTCTGCTTTTCGAGTAAACAAATTTTCCTAATCTTTCTGTTCAAGCGCCATCTAC,3.35
4,GATGATTGTTCTCCCAGCTGATGAATTGATAGCGTCGAGTAAACAAATTTTCCTAATCTTTCTGTTCAAGCGCCATCTAC,0.771
5,GATGATTGTTCTCCCAGCTGATGAATTCCCTATATCGAGTAAACAAATTTTCCTAATCTTTCTGTTCAAGCGCCATCTAC,0.309
6,GATGATTGTTCTCCCAGCTGATGAATTATTGGCCTCGAGTAAACAAATTTTCCTAATCTTTCTGTTCAAGCGCCATCTAC,0.803
7,GATGATTGTTCTCCCAGCTGATGAATTTCTGGAATCGAGTAAACAAATTTTCCTAATCTTTCTGTTCAAGCGCCATCTAC,0.186
8,GATGATTGTTCTCCCAGCTGATGAATTTCCCCGATCGAGTAAACAAATTTTCCTAATCTTTCTGTTCAAGCGCCATCTAC,0.178
9,GATGATTGTTCTCCCAGCTGATGAATTGCCTACCTCGAGTAAACAAATTTTCCTAATCTTTCTGTTCAAGCGCCATCTAC,0.549
10,GATGATTGTTCTCCCAGCTGATGAATTGTAACAGTCGAGTAAACAAATTTTCCTAATCTTTCTGTTCAAGCGCCATCTAC,0.73
11,GATGATTGTTCTCCCAGCTGATGAATTGGGCCCCTCGAGTAAACAAATTTTCCTAATCTTTCTGTTCAAGCGCCATCTAC,0.951
12,GATGATTGTTCTCCCAGCTGATGAATTCTGCGCCTCGAGTAAACAAATTTTCCTAATCTTTCTGTTCAAGCGCCATCTAC,2.3
13,GATGATTGTTCTCCCAGCTGATGAATTCTAGCTGTCGAGTAAACAAATTTTCCTAATCTTTCTGTTCAAGCGCCATCTAC,0.392
14,GATGATTGTTCTCCCAGCTGATGAATTAGGCCTGTCGAGTAAACAAATTTTCCTAATCTTTCTGTTCAAGCGCCATCTAC,3.91
15,GATGATTGTTCTCCCAGCTGATGAATTAAGTGTTTCGAGTAAACAAATTTTCCTAATCTTTCTGTTCAAGCGCCATCTAC,1.87
